According to the supplement of paper PMC3334620:
In all, about 33,000 sequences were measured (“E-score (-0.5 to 0.5)”: median about -0.01, highest 2% from about 0.26 on). Some of the results follow.

These sequences were tested against Ste12 (UniProt P13574) (assay: PBM E-score (8-mer binding enrichment) (E-score (-0.5 to 0.5)); higher = stronger / more preferred TF binding; most listed sequences are background and not binding sites). Settings: protein concentration: 200 nM; construct: GST-DNA-binding domain.
In short: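 Each ungapped eight-base word and its reverse complement, pooled, received an E-score from the Universal PBM Analysis Suite. Underlying scans, normalised with masliner, recorded fluorescent anti-GST bound to GST-tagged yeast transcription factors. These were applied at about 100-200 nM to universal all-10-mer Agilent arrays double-stranded by primer extension.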

Sequence | PBM E-score
GCTAGGCA | -0.263
ACACCTTC | 0.0213
GGGGGAGA | -0.0338
ATACACAA | 0.283
AAACGGGG | 0.114
CCGGCAGC | 0.117
AGGCTCCG | 0.108
ATCGCAGC | -0.0765
GCTGTAAA | -0.00849
CTACGCAG | -0.152
CGTCTGGC | -0.0363
TCGAGTCA | -0.119
GATATTGA | 0.00369
TAGAAACA | 0.254
CATCTGTA | 0.00385
AGTGGCTC | -0.0837
AAGAACTA | 0.00166
AGGTACAG | -0.0843
CACCAACA | 0.0604
TCACAACA | 0.0814
GAATTTAA | 0.0395
GTCGCCAA | -0.0871
AACTCAGG | -0.108
CGCTGTAG | 0.0406
ATAGCAGG | 0.0382

Sequence | PBM E-score
CGTCTTAG | -0.313
GGGCCGTA | -0.133
AGGAGATA | -0.113
ACGCGGAG | -0.0565
CGGTCCCC | -0.121
GACCAGAC | -0.262
CCGCTCTC | -0.238
ACATGCCA | 0.175
CTCGTCAG | 0.0429
ATTTAGGA | -0.039
AAGAGTCC | -0.214
CAGGCACC | -0.217
GCCTCTGA | -0.0274
ATAATGAA | 0.256
AATAATTC | 0.13
ATCCCTGC | -0.0558
ACCCAGAA | 0.0802
AAATTAGG | 0.142
AGGACTAC | -0.171
TGACGTAA | 0.0343
AGGATTTG | 0.118
CGCCTTGC | -0.0139
AACCATCT | 0.0768
AGTTTAGG | -0.176
CACGATGC | -0.00478

Sequence | PBM E-score
ATGGGTAC | -0.137
TAAAGCGA | 0.0972
ACAAAAGA | 0.0856
GAGCGGTA | 0.0399
CTTCGTCC | -0.148
AGTCCGCA | -0.0664
CGTCCGTC | -0.217
CGATAATA | 0.0256
TAAATTTA | 0.334
AACGTCCG | -0.102
GATCACTA | -0.0969
TCTTGTCA | -0.0323
ATTACAAT | 0.199
ATTCGTCG | 0.0308
AACGTATA | 0.0689
CGCATGAG | -0.00739
CACTCCCA | 0.0996
AAACTACG | -0.0541
AACTAAAA | 0.241
TGGTGTAA | 0.169
CATAGATC | -0.0575
CGGAAAAC | 0.0342
GGACTACA | 0.0802
GCTGATAA | -0.0209
CGTTCGAA | 0.0698

Sequence | PBM E-score
AATGCAGA | 0.0735
CCCCTCGC | -0.106
CACCAGCA | 0.0422
CTCAGCAC | -0.0109
GATCACCA | -0.108
ACGCAACA | 0.208
ATCAAGGC | -0.156
CCGGGGTC | -0.129
ATGGCTGG | -0.0814
ACATCCGT | 0.0583
GTGATGCA | 0.0908
GTTCCCTA | -0.142
ACTACGAA | -0.121
GCTACCTA | -0.041
CCTTCGCA | -0.159
GTGGAGAA | 0.00105
TACGCGTA | 0.0156
CGGGTTGA | -0.037
CCTGGAAA | 0.126
AAACGGCC | 0.0238
ATAGCACA | -0.0228
ACGGTTAC | 0.146
CGTAAACG | -0.234
CTTGGGAC | -0.224
ATGATATA | -6e-05

Sequence | PBM E-score
CTACTCCC | 0.00239
AGGTGTAT | 0.214
ATTTAGTG | 0.238
CCGCAATC | -0.024
AGAGTCTC | -0.00303
CCTTAACA | 0.00646
AGGGGATA | 0.0568
ATTTCTTA | 0.176
GCCCCCGA | -0.0717
ACTGTTGG | -0.117
AGACGAAT | 0.0481
CGATGAAG | 0.0893
AAGCATCG | -0.139
ATCTTCCG | -0.0329
ACCGATCT | -0.176
TAATAGCA | -0.0102
ATACAAAT | 0.191
CAGCGCTG | 0.0671
CCGTAGGA | -0.152
GCCAACGC | -0.0313
GATCAATC | -0.106
AAACAGGA | 0.228
AAGACGAA | -0.0707
ATCTCTCC | 0.0703
TAATGCAA | 0.108

Sequence | PBM E-score
CAAATATG | 0.136
CTAACCAG | 0.0445
CCCTTTAG | -0.326
CTACTAGA | 0.142
ATACGAAG | 0.0644
AAATAAAC | 0.243
CCGACAGC | -0.226
CGGGTTGC | 0.002
ACCGTTTC | 0.3
CTACCGTA | -0.118
AAGTCTGT | -0.0187
GACCGCCC | 0.0821
GTGTGACA | 0.0766
GGACGGCA | -0.155
CGGATCGC | -0.172
ATAGTAGC | -0.025
AACTTTCT | 0.128
ATTTCTCC | 0.0845
AATGCGCC | -0.103
CCATTTTA | 0.267
GGAAGGCA | -0.138
CGTGGCCA | -0.193
CGACCACG | -0.0397
CTGCAGCC | -0.0379
GTTGATAA | 0.152

Sequence | PBM E-score
GGCCTCCA | -0.0929
ACGGCTTC | -0.133
GAGAATGA | 0.194
AAGGTGCC | -0.0706
ATCGCCGC | 0.0231
GTCCGCGA | 0.0338
ATCAGGAC | 0.00854
AGGTTTCG | 0.144
AGTATGGC | 0.069
CTGACAAC | 0.0242
ATCGAGTG | -0.129
ACTTGCCG | -0.117
GGAGCACC | -0.0364
AAGCTGAA | 0.00741
CCGTGTCG | -0.0889
ACAGAGCC | 0.00627
ATCACGGA | 0.104
GTCAACTA | 0.0752
ACAGCGGT | 0.0758
GGCGTTAA | -0.0554
CACGTTAG | -0.0398
CTACGTCA | -0.0481
ACGAGTCT | -0.155
CTGGCAGA | 0.00936
CACCAATC | 0.144

Sequence | PBM E-score
CAGGCCAA | -0.0659
AGAGCGCG | 0.00827
ATCTCAAC | 0.132
ACAGGGTG | -0.213
CCCTATTA | -0.176
AATGACCC | -0.0659
ATATTGGG | -0.0271
CCAAAGCG | -0.0219
CATGTCAA | -0.143
AGTTAACT | -0.182
GAATCAGC | 0.0683
TATCATCA | 0.144
AATACGCG | -0.0113
CCCCTATA | 0.0567
AATGTCGG | 0.0113
ACTCGATA | -0.0186
CATCGAAA | 0.196
CCTTATCC | -0.153
CCCCCTGA | -0.135
ACGAGCAA | -0.183
ATTATGGC | -0.0645
CAAAATGA | 0.157
GTGGTATA | -0.0619
AACATAAT | 0.286
CGATCCCA | 0.0224

Sequence | PBM E-score
AAGAAACT | 0.172
ATCTGTTA | 0.106
AGGGGGCA | -0.104
CTATCGTA | 0.0407
CAATTTTC | 0.138
AGATCCTC | -0.101
ACCATGAG | 0.0673
ACACCACG | -0.181
CAATGAAC | 0.0698
CAAGCTAC | -0.174
AGGGCTTG | -0.24
CGGGATAG | -0.09
CTACGGAG | -0.199
GCCAGACC | -0.167
CGTTGGGA | 0.0489
TGAATAAA | 0.185
GACAGTAA | 0.0704
ATGAAGGG | -0.151
AGCTGGAG | -0.19
